# Reference: the supplement of paper PMC8183993
# Counter-ions that a name gives are not always drawn. ± gives the standard deviation of the averaged measurements. Whole data set: some 3,100 compounds, median “mean cytoplasmic OPP incorporation (global translation) relative to DMSO” near 100, cut for the lowest 2% near 56. The list shows a part of the results.
# Test system: U2OS
# Assay: mean cytoplasmic OPP incorporation (global translation) relative to DMSO (% of DMSO); higher = more protein synthesis
# Settings: 10 µM; 24 h
# Procedure: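 Primary image-based screen in U2OS cells: compounds at 10 uM for 24 h, then a 1 h o-propargyl-puromycin (OPP) pulse, click labelling, and high-throughput microscopy. Mean cytoplasmic OPP intensity and nuclei count were normalised to DMSO wells within each plate (DMSO = 100) and averaged over triplicate plates.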
row,Compound,mean cytoplasmic OPP incorporation
1,NC(=O)c1ccncc1 [Isonicotinamide],109
2,CC#CCOC(=O)c1c(C)nc2sc3c(c2c1N)CCC(O)C3 (configuration not stated),84.1
3,CCCCCCCCCCC(C)(C)C(=O)Nc1c(OC)cc(OC)cc1OC,101
4,CNC(=C[N+](=O)[O-])NCCSCc1csc(CN(C)C)n1 [Nizatidine],97.2
5,O=C(O)C1=CCNCC1 [Isoguvacine hydrochloride],101
6,CCC1=C[C@@H]2CN(C1)Cc1c([nH]c3ccccc13)[C@@](C(=O)OC)(c1cc3c(cc1OC)N(C)[C@H]1[C@@](O)(C(=O)OC)[C@H](OC(C)=O)[C@]4(CC)C=CCN5CC[C@]31[C@@H]54)C2 [Vinorelbine (Navelbine)],130
7,CCn1c(=O)[nH]c2ccccc21,106
8,CC(C)CN(C[C@@H](O)[C@H](Cc1ccccc1)NC(=O)O[C@H]1CCOC1)S(=O)(=O)c1ccc(N)cc1 [Amprenavir (Agenerase)],106
9,C=CC(=O)Nc1cccc(Nc2nc(Nc3ccc(NC4CN(CCF)C4)cc3OC)ncc2C(F)(F)F)c1,91.8
10,COc1cc(C)nc(-n2nc(C)cc2OC)n1 [Epirizole],101
11,CS(=O)(=O)Nc1ccc([N+](=O)[O-])cc1Oc1ccccc1 [Nimesulide],97.3 ± 5.5
12,CCn1cc(C(=O)O)c(=O)c2cc(F)c(N3CCNC(C)C3)c(F)c21 (configuration not stated) [Lomefloxacin hydrochloride],104
13,COc1cc(NC(=O)c2ccc(-c3ccc(Cl)cc3)o2)cc(OC)c1,102
14,CCOC(=O)CCC(=O)O[C@H]1[C@H](O[C@@H]2[C@@H](C)[C@H](O[C@H]3C[C@@](C)(OC)[C@@H](O)[C@H](C)O3)[C@@H](C)C(=O)O[C@H](CC)[C@@](C)(O)[C@H](O)[C@@H](C)C(=O)[C@H](C)C[C@@]2(C)O)O[C@H](C)C[C@@H]1N(C)C [Erythromycin Ethylsuccinate],104
15,C[C@]12C=CC(=O)C=C1CC[C@@H]1C2=CC[C@]2(C)[C@@H](C(=O)CN3CCN(c4cc(N5CCCC5)nc(N5CCCC5)n4)CC3)CC[C@@H]12,104
16,C[C@]12C=CC(=O)C=C1CC[C@@H]1[C@@H]2C(=O)C[C@@]2(C)[C@H]1CC[C@]2(O)C(=O)CO [Prednisone],99.6
17,C[C@]12C=CC(=O)C=C1CC[C@@H]1[C@@H]2C(=O)C[C@@]2(C)[C@H]1CC[C@]2(O)C(=O)CO [Prednisone (Adasone)],102
18,C=CCn1c(=O)n([C@@H]2O[C@H](CO)[C@@H](O)[C@H]2O)c2nc(N)[nH]c(=O)c21,99.2
19,Nc1ncnc2nc(-c3ccc(N4CCOCC4)nc3)cc(-c3cccc(Br)c3)c12 [ABT 702 dihydrochloride],101
20,CC1(C)[C@@H](O[C@H]2O[C@H](C(=O)O)[C@@H](O)[C@H](O)[C@H]2O[C@@H]2O[C@H](C(=O)O)[C@@H](O)[C@H](O)[C@H]2O)CC[C@]2(C)[C@H]3C(=O)C=C4[C@@H]5C[C@@](C)(C(=O)O)CC[C@]5(C)CC[C@@]4(C)[C@]3(C)CC[C@@H]12 [Ammonium Glycyrrhizinate (AMGZ)],103
21,CC1(C)[C@@H](O[C@H]2O[C@H](C(=O)O)[C@@H](O)[C@H](O)[C@H]2O[C@@H]2O[C@H](C(=O)O)[C@@H](O)[C@H](O)[C@H]2O)CC[C@]2(C)[C@H]3C(=O)C=C4[C@@H]5C[C@@](C)(C(=O)O)CC[C@]5(C)CC[C@@]4(C)[C@]3(C)CC[C@@H]12 [Glycyrrhizic acid],98.8

row,Compound,mean cytoplasmic OPP incorporation
1,CC(C)(F)C[C@H](N[C@@H](c1ccc(-c2ccc(S(C)(=O)=O)cc2)cc1)C(F)(F)F)C(=O)NC1(C#N)CC1 [Odanacatib (MK 0822)],109
2,COc1cc(C)c(/C=C/C(C)=C/C=C/C(C)=C/C(=O)O)c(C)c1C [Acitretin],101 ± 9.2
3,C[C@H](NC(=O)[C@@H]1CCCN1C(=O)[C@@H]1CCCN1C(=O)[C@@H](O)[C@H](N)Cc1ccccc1)C(N)=O [Apstatin],101
4,O=c1[nH]c(=O)n([C@H]2C[C@H](O)[C@@H](CO)O2)cc1F [Floxuridine],63.9
5,O=c1[nH]c(=O)n([C@H]2C[C@H](O)[C@@H](CO)O2)cc1F [Floxuridine (Fludara)],78.3
6,CNNCc1ccc(C(=O)NC(C)C)cc1 [Procarbazine hydrochloride],104
7,CC(C)CC(NC(=O)OCC1c2ccccc2-c2ccccc21)C(=O)O (configuration not stated),109
8,COc1cc(/C=C/C(=O)O)ccc1O [Fumalic acid (Ferulic acid)],102
9,C[N+]1(C)CCC(=C(c2ccccc2)c2ccccc2)CC1 [Diphemanil methylsulfate],105
10,O=C(NC1CCOCC1)c1ccc(-c2cc(-c3c[nH]nc3-c3ccccn3)ccn2)cc1,93.3
11,O=C1C(=O)N(Cc2ccc(Cl)c(Cl)c2)c2ccccc21 [Apoptosis Activator 2],89.5
12,NS(=O)(=O)c1cc2c(cc1Cl)NCNS2(=O)=O [Hydrochlorothiazide],104
13,CN(C)CCC=C1c2ccccc2C=Cc2ccccc21 [Cyclobenzaprine hydrochloride],97.4
14,O=C1c2cccc(O)c2C(=O)c2c(O)cc(CO)cc21 [Aloe-emodin],89.9
15,CN(C)CCc1c[nH]c2ccc(C[C@H]3COC(=O)N3)cc12 [Zolmitriptan (Zomig)],104
16,CC1=C(/C=C/C(C)=C/C=C/C(C)=C/C(=O)Nc2ccc(O)cc2)C(C)(C)CCC1 [Fenretinide],120
17,NC(=O)c1ncn([C@@H]2O[C@H](CO)[C@@H](O)[C@H]2O)c1N,110
18,NC(=O)c1ncn([C@@H]2O[C@H](CO)[C@@H](O)[C@H]2O)c1N [Acadesine],91.7 ± 2.2
19,CC(c1cc2ccccc2s1)N(O)C(N)=O (configuration not stated) [Zileuton],105
20,Nc1ccc(-c2cccc3c(=O)cc(N4CCOCC4)oc23)cc1,80.3
21,C[C@@H]1C(=O)O[C@H]2C[C@@]34[C@H]5C[C@@H](C(C)(C)C)[C@]36[C@@H](OC(=O)[C@@H]6O)O[C@@]4(C(=O)O5)[C@]21O [Ginkgolide A],103
